ChEMBL document CHEMBL4888484, “Replenishing the malaria drug discovery pipeline: Screening and hit evaluation of the MMV Hit Generation Library 1 (HGL1) against asexual blood stage Plasmodium falciparum ,using a nano luciferase reporter read-out” (2022)
The campaign covered roughly 150,000 compounds. About 540 (0.36%) showed an effect of 50% or more. Some of the results follow.

system: Plasmodium falciparum; experiment: Primary screen in NF54 nanoGlo assay, in single point, at 2uM, 72h; a lower Z score goes with more inhibition; format: functional, Erythrocyte; settings: timepoint 72 hour

| SMILES | % Inhibition | Z score |
| --- | --- | --- |
| O=C(CCc1ccccc1)OCCN1CCCC1=O | 4% | -0.46 |
| O=C(NC1CCOC1c1ccc(F)c(F)c1)N1CCC[C@@H]1CO (some centres not stated) | -7% | 0.98 |
| CC[C@H]1COCCN1C(=O)c1cnn(-c2ccncc2)c1 | 10% | -1.31 |
| COCC(O)CNC(C)c1cc2cc(Cl)ccc2o1 (configuration not stated) | 3% | -0.53 |
| CC(C)(NC(=O)C1CCCCC1)c1nc2c(c(C(N)=O)n1)OCCO2 | -7% | 0.99 |
| CN(CCc1nc(-c2c[nH]c3ccccc23)nn1C)[C@H]1CCS(=O)(=O)C1 | -13% | 1.33 |
| CCCn1nc(C(=O)O)c2c1CC[C@H](N(C)Cc1ccno1)C2 | 5% | -0.73 |
| Cc1ccc(C)c(C2CN(CCN3C(=O)CCC3=O)C(C)CO2)c1 (configuration not stated) | 2% | -0.19 |
| Cc1csc2c(NC3CCOC4(CCOC4)C3)ncnc12 (configuration not stated) | -8% | 0.81 |
| COc1ccc(-c2nn(-c3ccc(C(F)(F)F)cc3)c(N)c2NC(=O)NCCc2ccccc2OC)cc1 | -6% | 0.92 |
| C#CCN(Cc1ccco1)C(=O)N[C@H]1CCN(c2cc(Cl)ccc2OC)C1 | -6% | 0.6 |
| Fc1cccc(F)c1Cn1cc(COCc2ccccc2)nn1 | -2% | 0.29 |
| O=C(CCN1CCN(c2ccccc2)CC1)Nc1cccc2nonc12 | -5% | 0.54 |
| CC(C(=O)Nc1ccc(F)c(F)c1F)(C(F)(F)F)C(F)(F)F | -10% | 1.24 |
| CCOc1cccc(COC(=O)c2oc(C)nc2C)n1 | 35% | -3.99 |
| C[C@H](NS(C)(=O)=O)c1ccc(Cl)cc1 | -6% | 0.94 |
| O=C1C2CCCCC2C(=O)N1CC(O)c1ccccc1 (configuration not stated) | 2% | -0.38 |
| CC(C)C[C@H](CNC(=O)c1cncn1C)CC(=O)OC1CCOC1 (some centres not stated) | -4% | 0.68 |
| Cc1cnc(C(=O)Nc2ccncc2)cn1 | -8% | 1.24 |
| O=C(Cn1cccc1-c1nc(-c2ccc3c(c2)OCO3)no1)Nc1ccc(F)c(F)c1 | -20% | 2.8 |
| COCCN1[C@H](C)CN(CCc2ccc(F)c(F)c2)C[C@@H]1C | -5% | 0.64 |
| CC1CCCC(NC(=O)C2N(CCN3CCOCC3)C(=O)[C@H]3C(C(=O)Nc4cc(Cl)cc(Cl)c4)[C@H]4C=C[C@@]23O4)C1C (some centres not stated) | 0% | 0.02 |

| SMILES | % Inhibition | Z score |
| --- | --- | --- |
| Cc1ncnc(N2CCC(CNC(=O)c3ccco3)CC2)c1C | -11% | 1.06 |
| Oc1cccc(CN(C[C@H](O)C(F)(F)F)[C@H]2CC[C@H](O)CC2)c1 | -13% | 2.42 |
| CCNC(=O)c1ccc(C)c(NC(=O)c2ccc(N3CCN(C)CC3)cc2)c1 | -3% | 0.38 |
| CC(C)(C)OC(=O)N1CCC[C@H](NCc2ncc[nH]2)C1 | 2% | -0.3 |
| Cc1noc(-c2cccnc2-n2ncc(C(=O)NCc3cccc(Cl)c3)c2C)n1 | -13% | 1.98 |
| Cc1ccccc1N1CCC(NCc2cncn2C2CC2)CC1 | -10% | 1.1 |
| Cc1ccc(C(=O)N2CCN(S(=O)(=O)C3CCCCC3)CC2)o1 | -11% | 2 |
| CC(C)NC(=O)c1ccc(N2CCOC(C)(C)C2)nn1 | -5% | 0.87 |
| CCC(C)(CC)NC(=O)Cc1cccc(N)c1 | 17% | -2.01 |
| COc1ccc(C2CC(c3ccc(OC)cc3)n3ncnc3N2C(C)=O)cc1 (configuration not stated) | -11% | 1.39 |
| CN(C)C(=O)N1CCC[C@H]1C(=O)N[C@H]1CC[C@H](NC(=O)c2ccccc2)CC1 | -6% | 0.77 |
| Cn1c(C2CCCC2)nc2ccccc21 | -5% | 0.55 |
| Cn1nnc(CN[C@H]2CCN(c3ccc(Cl)c(F)c3)C2=O)n1 | -4% | 0.4 |
| CNC(=O)c1ccc(CN2C[C@@H]3[C@@H]4CC[C@@H](C4)[C@@H]3C2)cc1 | -26% | 2.43 |
| COC1CN(c2ccc(NC(=O)CC3CC3)cc2)C1 | -8% | 1.27 |
| Cc1c(Cl)ccc2c1N(C(=O)c1ccc(=O)n(C)c1)CCC2 | 8% | -0.83 |
| Cc1ccc(-c2n[nH]cc2CN2CCn3c(C)nnc3C2)cc1 | -10% | 1.46 |
| O=C(C[C@H]1CCCS(=O)(=O)C1)N1CCCc2c(F)c(F)cc(F)c21 | -3% | 0.62 |
| C[C@@H]1CCC[C@H](C)N1Cc1nc(C2CC2)n[nH]1 | -9% | 1.06 |
| COC(=O)c1cccc(S(=O)(=O)N(C)Cc2cc[nH]n2)c1C | -9% | 1.32 |
| CC(C)(C)c1cc(C#N)cc(C(C)(C)C)c1O | -13% | 1.71 |
| CCOc1cc(CCCNC(=O)c2cc[nH]n2)ccc1OC | -3% | 0.32 |

| SMILES | % Inhibition | Z score |
| --- | --- | --- |
| Cc1cccc2nc(CN3CC[C@@]4(C3)NC(=O)N(C(C)C)C4=O)cn12 | -2% | 0.38 |
| COCC(C)(C)N(C)C(=O)c1cncc(-n2ccnn2)c1 | -10% | 1.91 |
| COc1ccc(C(=O)N2CCC(F)(C(=O)N3CCOCC3)CC2)cc1 | -7% | 0.89 |
| CCNC(=O)CN(CC)C(=O)COc1ccc(C)c(C)c1 | 12% | -1.43 |
| CC(CC(=O)O)CC(=O)NC(C)c1ccccc1 (configuration not stated) | 0% | 0.09 |
| CN(Cc1ccsc1)c1nc(-c2ccncc2)nc2c1CCNCC2 | -3% | 0.62 |
| CC[N+](C)(CC)CCOc1cc(C)c2ccccc2n1 | 46% | -7.88 |
| Cc1cc(C)cc(CC(C)NC(=O)C2CCCN2)c1 (configuration not stated) | 9% | -1.3 |
| Cc1noc(C)c1C(=O)NCc1cncc(-c2ccsc2)c1 | -9% | 1.33 |
| CCCn1ncnc1-c1cccc2c1OCC2 | -10% | 1.3 |
| COc1ccc(S(=O)(=O)N2C[C@H](C)Oc3cc(F)ccc32)cn1 | 27% | -3.04 |
| CC(C)(C)c1cnc(CN2CCC(c3nnc4n3CCC4)CC2)o1 | 11% | -1.56 |
| Oc1cccnc1CNC1CC(c2cccc(F)c2)C1 (configuration not stated) | 22% | -2.1 |
| CC[C@H](C)Cc1nc(C2CCN(CC(N)=O)CC2)n(CC(C)(C)O)n1 | 1% | -0.14 |
| COCc1nc(NC2CCC(NC(=O)c3ccc(OC)cc3)CC2)c2cnn(-c3ccccc3Cl)c2n1 (configuration not stated) | 10% | -1.7 |
| O=C1C[C@@H](c2cccs2)c2scc(-c3cccc(F)c3)c2N1 | -5% | 0.99 |
| O=C1N(CCCOc2ccccc2)c2ccccc2NC12CCNCC2 | -21% | 1.96 |
| CCc1nc(-c2c3n(c(=O)n(CC(=O)Nc4cc(C)cc(C)c4)c2=O)CCCC3)no1 | -11% | 1.33 |
| CCN(C[C@H](O)c1cccc(O)c1)C(=O)Cn1ccccc1=O | -10% | 1.89 |
| Cc1n[nH]c(C)c1-c1cc(-c2c(C)n[nH]c2C)c(C#N)c(N)n1 | -5% | 0.72 |
| CN(C(=O)c1cc(C2CC2)no1)c1ccc(Br)cc1F | 1% | -0.2 |
| CCn1ncc(CN2CC[C@@H]3C(=O)NCCCCCCN(Cc4ccncc4)[C@@H]3C2)c1C | 43% | -5.64 |

| SMILES | % Inhibition | Z score |
| --- | --- | --- |
| CCCCNC(=O)[C@@]1(C)CC1(Cl)Cl | -8% | 1.31 |
| O=C(CCn1cnnn1)N1CC[C@@]2(CCCN(CCc3ccccc3)C2)C1 | -9% | 1.58 |
| CC(C)(C(=O)N1CC[C@@]2(C1)NC(=O)NC2=O)c1ccccc1Cl | -2% | 0.39 |
| CN1Cc2ccc(CN(C)C(=O)c3ccc(-n4cnnn4)cc3O)cc2C1 | 0% | 0.02 |
| Cn1cc(-c2n[nH]c(-c3cnn(C)c3)c2Cl)cn1 | -5% | 0.64 |
| CCOc1nc(-c2cccc(F)c2)n(-c2ccc(NC(=O)Cc3ccccc3)cc2)n1 | -10% | 1.39 |
| CN1CCN(C[C@H]2CCCN(CCS(=O)(=O)c3ccccc3)C2)CC1 | -7% | 0.96 |
| CCC(C)OCC(=O)N(C)C1CCN(CC)CC1C (configuration not stated) | -13% | 1.49 |
| CCn1c(=O)cc(C(F)(F)F)[nH]c1=O | 6% | -0.74 |
| COc1ccc(S(=O)(=O)N2CCC3(CC2)N[C@@H](C)C(=O)N3CCc2ccc(OC)c(OC)c2)cc1 | 0% | 0.04 |
| CN(C)Cc1ccc(-c2nc(C(C)(C)C)no2)o1 | -3% | 0.55 |
| CN1C(=O)N[C@]2(CCN(C(=O)NCc3noc4c3CCCC4)C2)C1=O | -8% | 1.09 |
| CN1C[C@]2(C(=O)c3ccccc3)CN(C)C[C@](C(=O)c3ccccc3)(C1)C2 | 24% | -3.12 |
| O=C(NC1CCCC1)c1nc[nH]c1C(=O)NCc1ccccc1 | 15% | -1.76 |
| Cc1nn(CC(=O)NCCc2cscn2)c(=O)n1CCc1ccccc1 | -5% | 0.51 |
| Cc1cccnc1C(=O)N1CC2(C[C@@H](C(=O)N3CCCC3)N(C)C2)C1 | -9% | 1.06 |
| CCCC[C@H](CC)C(=O)N1CCC(Cc2ccc3c(c2)OCO3)CC1 | -10% | 1.01 |
| CCNC(=O)N1CCN(C(=O)c2ccc3cc[nH]c3c2)CC1 | 12% | -1.91 |
| CCC(C)(C)NCC(=O)Nc1cc(C)on1 | -19% | 3.98 |
| Cc1cc(C)n(CC(=O)Nc2csc(-c3ccccn3)n2)n1 | 4% | -0.5 |
